Assay results taken from PMC7417631.
No constants are given. Whether binding was seen depends on the method and setting. Binding seen in cells or lysates may run through a third protein. Some results given as binding are weak or reduced against the parent protein; the word gives no strength. For part of these data: Sequences can lack the tags named with a protein. Values belong to the molecule of their own block, whether it stands above or below them.

The chains behind the UniProt entries cited, without tags or fusion partners. Residues count along the entry.
UniProt P25799, residues 1-431: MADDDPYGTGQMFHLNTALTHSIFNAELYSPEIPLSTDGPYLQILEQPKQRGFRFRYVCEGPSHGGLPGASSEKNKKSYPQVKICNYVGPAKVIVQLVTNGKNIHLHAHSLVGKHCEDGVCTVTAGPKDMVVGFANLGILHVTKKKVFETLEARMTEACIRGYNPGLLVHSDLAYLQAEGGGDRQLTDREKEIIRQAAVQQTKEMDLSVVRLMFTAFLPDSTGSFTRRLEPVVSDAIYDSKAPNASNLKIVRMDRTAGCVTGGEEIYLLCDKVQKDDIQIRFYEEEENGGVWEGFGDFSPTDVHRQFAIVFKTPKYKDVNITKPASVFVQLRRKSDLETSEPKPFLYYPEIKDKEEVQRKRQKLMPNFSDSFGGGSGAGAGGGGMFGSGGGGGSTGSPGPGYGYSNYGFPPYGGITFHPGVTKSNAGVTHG
UniProt Q04207: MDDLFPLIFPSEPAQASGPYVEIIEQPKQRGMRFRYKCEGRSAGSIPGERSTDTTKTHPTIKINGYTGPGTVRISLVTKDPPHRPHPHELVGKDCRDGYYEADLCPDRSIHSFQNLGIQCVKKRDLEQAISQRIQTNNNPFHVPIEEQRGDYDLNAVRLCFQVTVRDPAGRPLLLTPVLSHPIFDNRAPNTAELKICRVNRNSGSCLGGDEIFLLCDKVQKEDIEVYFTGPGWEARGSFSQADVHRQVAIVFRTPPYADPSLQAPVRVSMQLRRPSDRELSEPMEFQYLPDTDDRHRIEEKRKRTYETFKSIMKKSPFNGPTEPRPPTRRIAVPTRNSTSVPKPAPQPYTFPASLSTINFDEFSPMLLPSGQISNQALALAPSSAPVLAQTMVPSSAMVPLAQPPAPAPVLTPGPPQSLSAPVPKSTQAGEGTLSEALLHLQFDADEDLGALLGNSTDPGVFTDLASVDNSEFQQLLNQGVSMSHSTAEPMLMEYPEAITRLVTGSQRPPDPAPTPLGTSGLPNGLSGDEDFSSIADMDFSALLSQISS

Assays:
[1] = target: c-Myc-tagged PDLIM7 (wild type) (mouse) (UniProt Q3TJD7); experiment: co-IP; 293T cells transfected with c-Myc-PDLIM7 and FLAG-p65 or FLAG-p50; RIPA lysate; IP with anti-c-Myc agarose overnight at 4°C, four washes with RIPA; blot anti-FLAG (Figure 2A)
[2] = target: T1, c-Myc-tagged PDLIM2 (wild type, expressed without transfected PDLIM7) (mouse) (UniProt Q8R1G6); experiment: co-IP; Supplementary Figures 6A and 6C; PDLIM2 wild type or K0 and p65 in 293T cells, also after PDLIM7-specific siRNA; format and tags not shown
T1 sequence: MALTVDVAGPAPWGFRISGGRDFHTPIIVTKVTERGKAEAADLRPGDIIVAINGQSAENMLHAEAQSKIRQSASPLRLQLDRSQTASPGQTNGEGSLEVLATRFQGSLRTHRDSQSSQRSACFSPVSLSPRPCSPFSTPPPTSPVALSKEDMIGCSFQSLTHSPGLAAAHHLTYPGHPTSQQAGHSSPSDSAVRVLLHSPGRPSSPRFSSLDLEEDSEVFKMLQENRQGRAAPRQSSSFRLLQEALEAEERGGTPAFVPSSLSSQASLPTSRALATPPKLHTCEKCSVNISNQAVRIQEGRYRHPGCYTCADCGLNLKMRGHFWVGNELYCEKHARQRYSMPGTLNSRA

[3] = target: c-Myc-tagged ΔLIM3 PDLIM7 mutant (mouse) (UniProt Q3TJD7); experiment: co-IP; Supplementary Figure 2D; PDLIM7 ΔLIM3 and p65; format not shown (293T cells and RIPA lysates by the general methods)
[4] = target: T1, c-Myc-tagged PDLIM2 (wild type, expressed without transfected PDLIM7) (mouse); experiment: co-IP; 293T cells first transfected with control siRNA, then with HA-p62 without or with c-Myc-PDLIM2; IP anti-c-Myc, blot anti-HA (Figure 6H)
[5] = target: T1, c-Myc-tagged PDLIM2 (wild type, expressed without transfected PDLIM7) (mouse); experiment: co-IP; 293T cells transfected with a c-Myc-tagged and a His-tagged protein; RIPA lysate; IP anti-c-Myc, blot anti-His (Figures 4B, 4C)
[6] = target: T1, c-Myc-tagged PDLIM2 (wild type, expressed without transfected PDLIM7) (mouse); experiment: co-IP; 293T cells transfected with c-Myc-PDLIM2 without or with FLAG-PDLIM7, together with His-p62 or ΔUBA; IP anti-c-Myc, blot anti-His (Figure 6E)
[7] = target: endogenous PDLIM7 of RAW264.7 cells (mouse (endogenous in RAW264.7)) (UniProt Q3TJD7); experiment: co-IP; endogenous proteins; RAW264.7 cell lysates immunoprecipitated with anti-PDLIM7 or rabbit IgG, blot with anti-PDLIM2 antiserum (Figure 4A)
[8] = target: T2, c-Myc-tagged ΔPDZ PDLIM7 mutant (mouse) (UniProt Q3TJD7); experiment: co-IP; 293T cells transfected with a c-Myc-tagged and a His-tagged protein; RIPA lysate; IP anti-c-Myc, blot anti-His (Figures 4B, 4C)
T2 sequence: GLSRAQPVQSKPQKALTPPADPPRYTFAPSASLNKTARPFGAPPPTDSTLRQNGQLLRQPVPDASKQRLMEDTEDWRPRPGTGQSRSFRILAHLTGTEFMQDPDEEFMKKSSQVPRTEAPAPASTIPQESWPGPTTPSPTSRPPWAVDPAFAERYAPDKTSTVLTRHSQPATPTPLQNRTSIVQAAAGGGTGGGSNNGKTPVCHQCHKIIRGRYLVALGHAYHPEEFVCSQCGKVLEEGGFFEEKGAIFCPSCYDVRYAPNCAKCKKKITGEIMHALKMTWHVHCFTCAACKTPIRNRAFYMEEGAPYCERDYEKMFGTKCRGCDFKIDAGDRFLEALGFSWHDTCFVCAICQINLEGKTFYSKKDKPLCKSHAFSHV

[9] = target: c-Myc-tagged ΔLIM2/3 PDLIM7 mutant (mouse) (UniProt Q3TJD7); experiment: as above
[10] = target: c-Myc-tagged ΔLIM3 PDLIM7 mutant (mouse) (UniProt Q3TJD7); experiment: as above
[11] = target: c-Myc-tagged PDLIM7 (wild type) (mouse) (UniProt Q3TJD7); experiment: as above

- binding [1]: no binding
Molecule: FLAG-tagged p50 subunit of NF-κB (from UniProt P25799 1-431)

- binding [1]: binds
- binding [2]: binds
- binding [3]: binds
Molecule: FLAG-tagged p65 subunit of NF-κB (from UniProt Q04207 1-549)

- binding [4]: binds
Molecule: HA-tagged p62/Sqstm1 (from UniProt Q64337-1 1-442)

- binding [5]: binds
Molecule: His-tagged PDLIM7 (from UniProt Q3TJD7-1 1-457)

- binding [6]: binds weakly
Molecule: His-tagged p62/Sqstm1 (from UniProt Q64337-1 1-442)

- binding [7]: binds
B1: endogenous PDLIM2 of RAW264.7 cells (protein, UniProt Q8R1G6 1-349)
chain: MALTVDVAGPAPWGFRISGGRDFHTPIIVTKVTERGKAEAADLRPGDIIVAINGQSAENMLHAEAQSKIRQSASPLRLQLDRSQTASPGQTNGEGSLEVLATRFQGSLRTHRDSQSSQRSACFSPVSLSPRPCSPFSTPPPTSPVALSKEDMIGCSFQSLTHSPGLAAAHHLTYPGHPTSQQAGHSSPSDSAVRVLLHSPGRPSSPRFSSLDLEEDSEVFKMLQENRQGRAAPRQSSSFRLLQEALEAEERGGTPAFVPSSLSSQASLPTSRALATPPKLHTCEKCSVNISNQAVRIQEGRYRHPGCYTCADCGLNLKMRGHFWVGNELYCEKHARQRYSMPGTLNSRA

- binding [8]: binds
- binding [9]: no binding
- binding [10]: binds
- binding [11]: binds
B2: His-tagged PDLIM2 (protein, UniProt Q8R1G6 1-349)
chain: MALTVDVAGPAPWGFRISGGRDFHTPIIVTKVTERGKAEAADLRPGDIIVAINGQSAENMLHAEAQSKIRQSASPLRLQLDRSQTASPGQTNGEGSLEVLATRFQGSLRTHRDSQSSQRSACFSPVSLSPRPCSPFSTPPPTSPVALSKEDMIGCSFQSLTHSPGLAAAHHLTYPGHPTSQQAGHSSPSDSAVRVLLHSPGRPSSPRFSSLDLEEDSEVFKMLQENRQGRAAPRQSSSFRLLQEALEAEERGGTPAFVPSSLSSQASLPTSRALATPPKLHTCEKCSVNISNQAVRIQEGRYRHPGCYTCADCGLNLKMRGHFWVGNELYCEKHARQRYSMPGTLNSRA
